{
  "source": "the supplement of paper PMC8728848",
  "binders": {"B1": {"name": "Epa1-NP (Candida glabrata), Q6VBJ0 (protein)", "chain": "MILNPALFLNKCVCIYTTLILLLLTNGGYATSSNDISLASKDPTTFPLGCSPDITTPKKGLSMELYSYDFRKKGSYPCWDAAYLDPNYPRTGYKSHRLLAKVDGVTGNINFYYHATKGCTPQLGHLPASYNYPKPLTMTNFTMLLYGYFRPKVTGFHTFTISADDLLFVNFGAGNAFDCCRRDSSADHFGNYQAYAIWGSKTAKDELTVHLDAGVYYPIRLFYNNREYDGALSFTFKTESNENTVSDFSEYFFSLDDTEEGCPGLISYDSSCASVKTSKIIGIDYHTETPNENLVPITKTIYHLGIPCTGTTTTPLCGSGFYDPLANKCVTINTSSTSSVTKTTSHTTSKEVSFHSSISSQKTLIPKSIPSPYGPIKSQSIPTEMETSSEISSSEYAFSDVISTPSHSPYTKKHSSLNSSSYTSTVIHSLTSYSISQGIFSTSLSEQNITSKSSTDKFSTATSMSNNITQSSIIISQFSTNNENYTTTSMHTSSDKISTETLNNSISTTTSILFSNSSTILKNNTTIISSDKDTHYHPVNPTIVCSTNKTEIICASITQPSISNSNNHWSSSVLKFNSTTVRSTLPSSAGSNETSINVPFSSSTESNTSTSSTSTSNSKMVRSTLPSSAGSNETSISVPFSSSTESNTSTSSTSTSNSKMVRSTLPSSAGSNETSINVPFSSSTESNTSTSSTSTSNSKTVRSTPFSSAGIIMTSLSQRNNKSASSYASSNSKCYNTADSCRKVHSTPSYLLTSSYTSEGVDYDCSLVSTKLKINDTNCVNNKHTTKSCLKTSVTTTIPTLEIKTARKSSSNTIGLHSYPTSSPNKSISSAPIIGYISSFKTIKTASPSYQTSDLTTITTITSLNNPGSTAVENTHESNDKSRKTSSNDISSKHSVIKETKDAVESSNKSHQTNTLKCSSIIIASSSHNSYESLGGTTLTLTLSKVYSPQNNDTLPFLEISEVNPSRTVLPESSKMMQYLTSTEERNKTARNTIATNIVSISTFHFEGEGNAIRMGYTQLLLMLIGIIVMNIGT"}},
  "experiment_in_all_cases": "glycan array binding signal (z-score within array); higher = stronger binding",
  "settings_in_all_cases": "glycan notation: IUPAC condensed, linker removed",
  "key": {"[1]": {"target": "Fuc(a1-2)[GalNAc(a1-3)]Gal(b1-4)GlcNAc(b1-2)Man(a1-3)[Fuc(a1-2)[GalNAc(a1-3)]Gal(b1-4)GlcNAc(b1-2)Man(a1-6)]Man(b1-4)GlcNAc(b1-4)[Fuc(a1-6)]GlcNAc", "procedure,_shortened": "(§1)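 The binding signal is a Z-score computed within each array. Data were drawn from 3228 arrays in the Consortium for Functional Glycomics database, restricted to those with a known protein sequence. Scores were averaged over arrays of the same protein sequence at different concentrations or buffers, and over linkers, and negative values can be taken as non-binding.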"}, "[2]": {"target": "Fuc(a1-2)[GalNAc(a1-3)]Gal(b1-4)GlcNAc(b1-3)Gal(b1-4)GlcNAc", "procedure,_shortened": "as §1"}, "[3]": {"target": "Fuc(a1-2)[GalNAc(a1-3)]Gal(b1-4)GlcNAc(b1-3)Gal(b1-4)GlcNAc(b1-3)Gal(b1-4)GlcNAc", "procedure,_shortened": "as §1"}, "[4]": {"target": "Fuc(a1-2)[GalNAc(a1-3)]Gal(b1-4)GlcNAc(b1-3)GalNAc", "procedure,_shortened": "as §1"}, "[5]": {"target": "Fuc(a1-2)[GalNAc(a1-3)]Gal(b1-4)GlcNAc(b1-3)[Fuc(a1-2)[GalNAc(a1-3)]Gal(b1-4)GlcNAc(b1-6)]GalNAc", "procedure,_shortened": "as §1"}, "[6]": {"target": "Fuc(a1-2)[GalNAc(a1-3)]Gal(b1-4)GlcNAc(b1-6)GalNAc", "procedure,_shortened": "as §1"}, "[7]": {"target": "Fuc(a1-2)[GalNAc(a1-3)]Gal(b1-4)[Fuc(a1-3)]GlcNAc", "procedure,_shortened": "as §1"}, "[8]": {"target": "Fuc(a1-2)[GalNAc(a1-3)]Gal(b1-4)[Fuc(a1-3)]GlcNAc(b1-3)GalNAc", "procedure,_shortened": "as §1"}, "[9]": {"target": "Fuc(a1-2)[GalNAc(a1-4)]Gal(b1-4)GlcNAc", "procedure,_shortened": "as §1"}, "[10]": {"target": "Fuc(a1-2)[GalNAc(b1-3)]Gal", "procedure,_shortened": "as §1"}, "Fuc(a1-3)GlcNAc": {"target": "Fuc(a1-3)GlcNAc", "procedure,_shortened": "as §1"}, "[11]": {"target": "Fuc(a1-3)[Gal(b1-4)]Glc6S", "procedure,_shortened": "as §1"}, "[12]": {"target": "Fuc(a1-3)[Gal(b1-4)]GlcNAc", "procedure,_shortened": "as §1"}, "[13]": {"target": "Fuc(a1-3)[Gal(b1-4)]GlcNAc(b1-2)Man", "procedure,_shortened": "as §1"}, "[14]": {"target": "Fuc(a1-3)[Gal(b1-4)]GlcNAc(b1-2)Man(a1-3)[Fuc(a1-3)[Gal(b1-4)]GlcNAc(b1-2)Man(a1-6)]Man(b1-4)GlcNAc(b1-4)GlcNAc", "procedure,_shortened": "as §1"}, "[15]": {"target": "Fuc(a1-3)[Gal(b1-4)]GlcNAc(b1-2)Man(a1-3)[Fuc(a1-3)[Gal(b1-4)]GlcNAc(b1-2)Man(a1-6)]Man(b1-4)GlcNAc(b1-4)[Fuc(a1-6)]GlcNAc", "procedure,_shortened": "as §1"}, "[16]": {"target": "Fuc(a1-3)[Gal(b1-4)]GlcNAc(b1-3)Gal(b1-3)[Fuc(a1-4)]GlcNAc", "procedure,_shortened": "as §1"}, "[17]": {"target": "Fuc(a1-3)[Gal(b1-4)]GlcNAc(b1-3)Gal(b1-4)[Fuc(a1-3)]GlcNAc", "procedure,_shortened": "as §1"}, "[18]": {"target": "Fuc(a1-3)[Gal(b1-4)]GlcNAc(b1-3)Gal(b1-4)[Fuc(a1-3)]GlcNAc(b1-3)Gal(b1-4)[Fuc(a1-3)]GlcNAc", "procedure,_shortened": "as §1"}, "[19]": {"target": "Fuc(a1-3)[Gal(b1-4)]GlcNAc(b1-3)GalNAc", "procedure,_shortened": "as §1"}, "[20]": {"target": "Fuc(a1-3)[Gal(b1-4)]GlcNAc(b1-4)Gal(b1-4)[Fuc(a1-3)]GlcNAc", "procedure,_shortened": "as §1"}, "[21]": {"target": "Fuc(a1-3)[Gal(b1-4)]GlcNAc(b1-4)Gal(b1-4)[Fuc(a1-3)]GlcNAc(b1-4)Gal(b1-4)[Fuc(a1-3)]GlcNAc", "procedure,_shortened": "as §1"}, "[22]": {"target": "Fuc(a1-3)[Gal(b1-4)]GlcNAc(b1-6)GalNAc", "procedure,_shortened": "as §1"}, "[23]": {"target": "Fuc(a1-3)[Gal(b1-4)]GlcNAc(b1-6)[Gal(b1-3)GlcNAc(b1-3)]Gal(b1-4)Glc", "procedure,_shortened": "as §1"}, "[24]": {"target": "Fuc(a1-3)[Gal(b1-4)]GlcNAc(b1-6)[Neu5Ac(a2-3)Gal(b1-3)]GalNAc", "procedure,_shortened": "as §1"}, "[25]": {"target": "Fuc(a1-3)[Gal(b1-4)]GlcNAc6S", "procedure,_shortened": "as §1"}, "[26]": {"target": "Fuc(a1-3)[Gal3S(b1-4)]Glc", "procedure,_shortened": "as §1"}, "[27]": {"target": "Fuc(a1-3)[Gal3S(b1-4)]Glc6S", "procedure,_shortened": "as §1"}, "[28]": {"target": "Fuc(a1-3)[Gal3S(b1-4)]GlcNAc", "procedure,_shortened": "as §1"}, "[29]": {"target": "Fuc(a1-3)[Gal3S(b1-4)]GlcNAc6S", "procedure,_shortened": "as §1"}},
  "note": "Some of the results follow.",
  "data": [
    {"binder": "B1", "values": [
      {"measurement": "glycan array binding signal (z-score)", "setting": "[1]", "result": -0.287},
      {"measurement": "glycan array binding signal (z-score)", "setting": "[2]", "result": -0.269},
      {"measurement": "glycan array binding signal (z-score)", "setting": "[3]", "result": -0.252},
      {"measurement": "glycan array binding signal (z-score)", "setting": "[4]", "result": -0.292},
      {"measurement": "glycan array binding signal (z-score)", "setting": "[5]", "result": -0.288},
      {"measurement": "glycan array binding signal (z-score)", "setting": "[6]", "result": -0.27},
      {"measurement": "glycan array binding signal (z-score)", "setting": "[7]", "result": -0.283},
      {"measurement": "glycan array binding signal (z-score)", "setting": "[8]", "result": -0.016},
      {"measurement": "glycan array binding signal (z-score)", "setting": "[9]", "result": -0.334},
      {"measurement": "glycan array binding signal (z-score)", "setting": "[10]", "result": -0.272},
      {"measurement": "glycan array binding signal (z-score)", "setting": "Fuc(a1-3)GlcNAc", "result": -0.322},
      {"measurement": "glycan array binding signal (z-score)", "setting": "[11]", "result": -0.204},
      {"measurement": "glycan array binding signal (z-score)", "setting": "[12]", "result": -0.288},
      {"measurement": "glycan array binding signal (z-score)", "setting": "[13]", "result": -0.287},
      {"measurement": "glycan array binding signal (z-score)", "setting": "[14]", "result": -0.279},
      {"measurement": "glycan array binding signal (z-score)", "setting": "[15]", "result": -0.197},
      {"measurement": "glycan array binding signal (z-score)", "setting": "[16]", "result": -0.32},
      {"measurement": "glycan array binding signal (z-score)", "setting": "[17]", "result": -0.282},
      {"measurement": "glycan array binding signal (z-score)", "setting": "[18]", "result": -0.29},
      {"measurement": "glycan array binding signal (z-score)", "setting": "[19]", "result": -0.215},
      {"measurement": "glycan array binding signal (z-score)", "setting": "[20]", "result": -0.287},
      {"measurement": "glycan array binding signal (z-score)", "setting": "[21]", "result": -0.324},
      {"measurement": "glycan array binding signal (z-score)", "setting": "[22]", "result": 0.103},
      {"measurement": "glycan array binding signal (z-score)", "setting": "[23]", "result": -0.157},
      {"measurement": "glycan array binding signal (z-score)", "setting": "[24]", "result": 0.194},
      {"measurement": "glycan array binding signal (z-score)", "setting": "[25]", "result": -0.093},
      {"measurement": "glycan array binding signal (z-score)", "setting": "[26]", "result": -0.346},
      {"measurement": "glycan array binding signal (z-score)", "setting": "[27]", "result": -0.543},
      {"measurement": "glycan array binding signal (z-score)", "setting": "[28]", "result": -0.341},
      {"measurement": "glycan array binding signal (z-score)", "setting": "[29]", "result": -0.218}
    ]}
  ]
}
